Reference: publication PMC4336329 (PLoS ONE, 2015)
About 2,200 (0.71%) of roughly 310,000 compounds showed an effect of 50% or more. The effect is printed as a negative number. The list shows a part of the results.

These compounds were tested against human ether-à-go-go-related gene (hERG) potassium channel (human, UniProt Q12809) (assay: primary screen, population patch clamp on CHO cells stably expressing hERG).
Chain of human ether-à-go-go-related gene (hERG) potassium channel (Q12809 whole entry, looked up): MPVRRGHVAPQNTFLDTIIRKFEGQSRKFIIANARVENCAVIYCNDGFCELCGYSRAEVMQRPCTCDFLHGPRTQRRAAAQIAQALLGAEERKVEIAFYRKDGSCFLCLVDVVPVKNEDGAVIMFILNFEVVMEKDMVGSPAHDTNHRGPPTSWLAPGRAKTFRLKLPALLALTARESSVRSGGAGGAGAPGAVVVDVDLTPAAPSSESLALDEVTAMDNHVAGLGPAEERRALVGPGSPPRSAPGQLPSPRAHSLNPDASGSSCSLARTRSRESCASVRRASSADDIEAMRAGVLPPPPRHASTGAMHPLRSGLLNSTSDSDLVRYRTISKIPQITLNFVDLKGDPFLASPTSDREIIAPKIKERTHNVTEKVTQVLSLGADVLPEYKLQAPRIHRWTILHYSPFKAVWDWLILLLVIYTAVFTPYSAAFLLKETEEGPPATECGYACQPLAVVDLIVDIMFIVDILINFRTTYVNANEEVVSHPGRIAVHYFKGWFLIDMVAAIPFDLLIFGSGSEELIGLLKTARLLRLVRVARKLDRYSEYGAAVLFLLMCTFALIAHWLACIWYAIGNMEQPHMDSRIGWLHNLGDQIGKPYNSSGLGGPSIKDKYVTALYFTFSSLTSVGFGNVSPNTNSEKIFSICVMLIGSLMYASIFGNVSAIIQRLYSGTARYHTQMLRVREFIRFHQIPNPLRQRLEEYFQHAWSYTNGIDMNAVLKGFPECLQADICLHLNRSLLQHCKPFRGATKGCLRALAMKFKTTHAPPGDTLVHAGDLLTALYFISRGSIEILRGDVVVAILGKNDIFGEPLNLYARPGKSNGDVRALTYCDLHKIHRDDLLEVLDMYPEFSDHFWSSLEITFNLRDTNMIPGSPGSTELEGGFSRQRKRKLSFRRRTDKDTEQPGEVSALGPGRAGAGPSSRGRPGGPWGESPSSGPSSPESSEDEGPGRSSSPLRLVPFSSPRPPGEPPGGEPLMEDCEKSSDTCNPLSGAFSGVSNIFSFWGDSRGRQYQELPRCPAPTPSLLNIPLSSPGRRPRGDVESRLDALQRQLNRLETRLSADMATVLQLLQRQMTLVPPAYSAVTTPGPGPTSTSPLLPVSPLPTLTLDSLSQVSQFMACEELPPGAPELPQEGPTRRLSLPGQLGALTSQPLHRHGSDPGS

| SMILES | hERG current change (%, negative = inhibition) at 1uM [%] |
| --- | --- |
| Cc1cc(C)c(C)c(S(=O)(=O)NCc2ccncc2)c1C | 14.7 |
| COc1cc(C(=O)Nc2ccc(N3CCN(C(=O)c4ccc(C)cc4)CC3)cc2)cc(OC)c1OC | 3.84 |
| Cc1c(/C(O)=C2/C(=O)C(=O)N(CCN(C)C)C2c2ccc(C(C)C)cc2)cnn1-c1ccccc1 (centres unmarked) | 13.4 |
| CC(C)(C)OC(=O)NCCCCCc1nnc(SCc2ccccc2)o1 | 9.3 |
| Cc1ccc(C(NC(=O)c2ccccc2)C(Cl)Cl)cc1 (centres unmarked) | 10.5 |
| COc1ccc(S(=O)(=O)N2CCOCC2)cc1NC(=O)Cc1sc(C)nc1-c1ccc(F)cc1 | 18.5 |
| COc1ccc(CNC(=O)C2CCCN(C(=O)Nc3ccc(OC)cc3)C2)cc1 (centres unmarked) | 1.82 |
| CCC(C(=O)N1CCCCCC1)n1nc(C)n2c(cc3occc32)c1=O (centres unmarked) | 12 |
| CS(=O)(=O)c1ccc(Cl)c(NC(=O)c2cc(=O)[nH]c3ccc(S(=O)(=O)N4CCOCC4)cc23)c1 | 9.61 |
| COc1ccc(OCC(=O)Nc2cccc(-c3nc4ccccc4o3)c2)cc1 | -1.56 |
| COC(=O)c1ccc(CNC(=O)c2ccc3c(c2)S(=O)(=O)N=C2CCCCCN23)cc1 | 3.83 |
| CCOC(=O)c1c(C)[nH]c(N=Nc2cccc(OC)c2)c1C | 6.77 |
| NC(=O)NC1NC(=O)NC1=O (centres unmarked) | 16.6 |
| Cc1nc(-c2ccc(NC(=O)C3CCCCC3)cc2)cs1 | 3.52 |
| O=C(O)c1nc(Cl)c(Cl)c(N/N=C/c2ccccc2C(F)(F)F)c1Cl | 11.8 |
| COc1cc(/C=C/C(=O)c2ccc(F)cc2)cc(OC)c1OC | 8.39 |
| Cn1ccnc1C(OC(=O)c1ccc(Cl)cc1)C(F)(F)F (centres unmarked) | 12.7 |
| COc1ccc(C2C(C#N)=C(C)NC3=C2C(=O)c2ccccc23)cc1 (centres unmarked) | 14.1 |
| O=C(Nn1cnnc1)c1ccncc1 | -0.614 |
| COc1cc2c(cc1OC)CN(C(=O)CN1CCN(S(=O)(=O)c3ccc(C)c(C)c3)CC1)CC2 | 7.13 |
| Cc1ccc(N=N/C(=C\O)C(=O)c2ccc(Cl)cc2)cc1 | 10.6 |
| COc1ccc(C(NC(C)=O)c2cc(Cl)c3cccnc3c2O)cc1OC (centres unmarked) | 9 |
| NS(=O)(=O)c1ccc(CCNC(=O)c2ccccc2-c2ccccc2)cc1 | 5.72 |

| SMILES | hERG current change (%, negative = inhibition) at 1uM [%] |
| --- | --- |
| Cc1ccccc1/C=C\c1nc2ccccc2c(=O)[nH]1 | 13.5 |
| C=CCN1CC(C)/C(=N\O)CC1C (centres unmarked) | 11.2 |
| CC(=O)Nc1ccc(S(=O)(=O)N/N=C/c2ccc(C)o2)cc1 | 17.2 |
| CN(C)S(=O)(=O)c1ccc(NC(=O)c2ccncc2)cc1 | 9.09 |
| CCc1cc(C(=O)Cc2nc3ccccc3[nH]2)c(O)cc1O | 8.07 |
| CCN(CC)CCN(C(=O)c1ccc(S(=O)(=O)N2CCCC2)cc1)c1nc2cc(C)cc(C)c2s1.Cl | -5.24 |
| COC(=O)c1ccccc1NC(=S)N1CCN(C2CCCCC2)CC1 | 5.54 |
| COC(=O)CN(c1ccccc1F)S(=O)(=O)c1ccc(C)cc1 | 12.1 |
| Cc1nc2scc(-c3cccs3)c2c(=O)n1CC(=O)O | 2.35 |
| COCCn1cnc2c1c(=O)n(Cc1c(F)cccc1Cl)c(=O)n2Cc1ccccc1 | 13.9 |
| COC(=O)CNC(=O)c1c(C)cc(=O)oc1C | 10.4 |
| CC1CCCN(c2ccc(C(=O)NCc3ccco3)cc2[N+](=O)[O-])C1 (centres unmarked) | -5.97 |
| Cc1nc2c(C)cccn2c1C(=O)c1ccccc1.Cl | 6.45 |
| Cc1ccc(N/C(N)=N/c2nc3c(c(=O)[nH]2)CCCC3)c(C)c1 | 13 |
| O=c1[nH]c2ccccc2n1C1CCCCC1 | 7.5 |
| CC1(C)CC(=O)C(=Cc2cn(-c3ccccc3)nc2-c2ccccc2)C(=O)C1 | -22.6 |
| O=c1c2cc(N3CCOCC3)ccc2[nH]c(=S)n1CCN1CCCC1 | 7.58 |
| Cc1ccc(C)c(NC(=O)c2ccc(S(=O)(=O)C(F)F)cc2)c1 | -0.92 |
| CC(C)OC(=O)CC(=O)c1sc2nc3c(cc2c1N)CN(C)CC3 | 9.54 |
| O=C(Nc1ccc(S(=O)(=O)N2CCN(c3ccccc3)CC2)cc1)c1cccs1 | 8.09 |
| O=c1cc(CO)[nH]cc1OCc1ccccc1 | 15.6 |
| CSc1nc(=S)n(-c2cc(C)ccc2C)c(C)c1C(C)=O | 16.7 |
| COc1ccc(C2c3c(ncn(CCCO)c3=N)Oc3ccc4ccccc4c32)cc1OC (centres unmarked) | -2.51 |

| SMILES | hERG current change (%, negative = inhibition) at 1uM [%] |
| --- | --- |
| Cc1ccc(-c2csc(/C(C#N)=C/Nc3ccccc3SC(F)(F)F)n2)c(C)c1 | 12 |
| Cc1ccc2c(CC(=O)OCn3nnc4ccccc4c3=O)coc2c1 | 13.7 |
| Cc1cc(C)c(NC(=O)CCCn2c(=O)oc3ccccc32)c(C)c1 | 8.19 |
| CC(=O)Oc1ccc(C(=O)Nn2cnnc2)cc1 | -1.61 |
| Cc1ccc(NS(=O)(=O)c2ccc(-c3cnc(C4CC4)o3)cc2)cc1 | 16.9 |
| CCOC(=O)/C(=C/c1ccc(Cl)cc1)NC(=O)c1ccco1 | -7.19 |
| COc1ccc(/C=C2\CCCc3c2nc2ccccc2c3C(=O)OCC(=O)c2c(N)n(C)c(=O)n(C)c2=O)cc1 | 10.9 |
| COc1cccc(C(=O)Nc2cccc3ccccc23)c1 | 17.3 |
| Oc1ccccc1-c1cc(-c2ccccc2Cl)[nH]n1 | 9.63 |
| CCOc1ccccc1NC(=O)CSc1nnc(-c2cccnc2)o1 | -1.24 |
| CC/C(=N\NC(=S)NC(C)C)c1ccc(OC)c(OC)c1 | 2.61 |
| COc1ccc(C(=O)Nc2cccc(C(C)=O)c2)cc1OC | -3.86 |
| CC1Cc2ccccc2N1C(=O)CN1C(=O)NC(C)(c2ccc3c(c2)OCCO3)C1=O (centres unmarked) | 15.9 |
| CC(C)C1C(c2ccccc2)NC(c2ccccc2)CC1(O)c1ccc(F)cc1.Cl (centres unmarked) | 10.7 |
| COc1cccc(CNc2nc3nc(C)c(Cl)c(C)n3n2)c1 | -20.3 |
| CC(=O)Nc1cc(OC(=O)c2ccco2)cc(OC(=O)c2ccco2)c1 | 5.22 |
| Cc1ccc2c(CN3CCCCC3C)cc(=O)oc2c1.Cl (centres unmarked) | -10.8 |
| COc1ccccc1N(CC(=O)NCC1CCCO1)C(=O)CNS(=O)(=O)c1ccccc1 (centres unmarked) | 9.94 |
| O=C(c1cccs1)N1CC=C(c2ccccc2)CC1 | 5.46 |
| COC(=O)c1nccnc1C(=O)Nc1ccccc1N1CCOCC1 | 7.86 |
| COc1ccc(S(=O)(=O)N2CCCOC2CNC(=O)C(=O)NC2CCCC2)cc1 (centres unmarked) | 10.7 |
| COc1ccc(N2CCN(C(=O)CSc3nc(C)cs3)CC2)cc1 | 1.15 |
| COc1ccc(C(=O)/C=C/c2cccc(OCc3ccccc3)c2)cc1CSCC(=O)O | 5.42 |

| SMILES | hERG current change (%, negative = inhibition) at 1uM [%] |
| --- | --- |
| CCOc1ncccc1C(=O)NCC(c1ccccc1)N(C)C (centres unmarked) | 10.1 |
| O=C(NNC(=O)c1ccccc1O)c1cc2ccccc2o1 | 7.58 |
| CCn1c(=NC(=O)CS(=O)(=O)c2ccc(C)cc2)sc2cccc(OC)c21 | 1.66 |
| Cc1ncsc1C(=O)NCc1ccc(N2CCCC2=O)cc1 | -0.752 |
| CS(=O)(=O)N1CCN(C(=S)NCc2ccc(F)cc2)CC1 | 15.6 |
| Cl.c1ccc(Cn2nnnc2C(c2cccs2)N2CCc3ccccc3C2)cc1 (centres unmarked) | 2.81 |
| COC(=O)c1cccc(COC(=O)c2ccccc2NC(=O)c2ccco2)c1 | 11.4 |
| CCCNC(C)(C)COC(=O)c1ccccc1.Cl | 13.1 |
| O=[N+]([O-])c1cc([N+](=O)[O-])c(Oc2c(F)cccc2F)cc1NN1CCCCC1 | 16.1 |
| CN(CCC#N)C(=S)NC(=O)c1ccc(S(=O)(=O)N2CCOCC2)cc1 | 13 |
| COC(=O)N/N=C/c1cc(C)n(-c2ccccc2)c1C | 10.7 |
| O=C(c1cccc(F)c1)N1CCN(S(=O)(=O)c2ccccc2)CC1 | -2.83 |
| COc1ccc(/C=C\C(=O)Oc2cccc(/C=N/NC(=O)Cc3ccc(OC)c(OC)c3)c2)cc1 | 12.2 |
| O=C(Nc1ccc(C(=O)Oc2ccccc2)c(O)c1)c1ccco1 | 3.13 |
| O=C(NCCc1ccccc1)C(=O)N/N=C/c1ccc2c(c1)OCO2 | 3.69 |
| COc1ccc(CC(=O)Nc2cccc(S(=O)(=O)N3CCCC3)c2)cc1OC | 11 |
| CC(C)Oc1ccc(C2CC(=O)N(c3cccc(/C=C/C(=O)O)c3)C2=O)cc1 (centres unmarked) | 15.2 |
| Cc1cc(=O)[nH]c(N2CCCC2)n1 | 14.3 |
| Cc1ccnc(NS(=O)(=O)c2ccc(NC(=O)C3CCCCC3C(=O)O)cc2)n1 (centres unmarked) | 19.9 |
| Cc1ccc2cc3cc(C(=O)NCCCN4CCc5ccccc5C4)oc3nc2c1 | -6.48 |
